# This is one part of the list.
# Experiments:
# Assay in all cases: glycan array binding signal (z-score within array); higher = stronger binding
# Details in all cases: glycan notation: IUPAC condensed, linker removed
# [1] = molecular target: Fuc(a1-3)[Gal3S(b1-4)]GlcNAc6S
# Procedure, shortened: (§1)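 The binding signal is a Z-score computed within each array and averaged over linkers. Arrays of the same protein sequence at different concentrations or buffers were also averaged together. Data originate from 3228 arrays in the Consortium for Functional Glycomics database, kept only where the protein sequence was available.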
# [2] = molecular target: Fuc(a1-3)[GalNAc(b1-4)]GlcNAc
# Procedure, shortened: as §1
# [3] = molecular target: Fuc(a1-3)[GalNAc(b1-4)]GlcNAc6S
# Procedure, shortened: as §1
# [4] = molecular target: Fuc(a1-4)GlcNAc
# Procedure, shortened: as §1
# [5] = molecular target: Fuc(b1-3)GlcNAc
# Procedure, shortened: as §1
# [6] = molecular target: Gal(a1-2)Gal
# Procedure, shortened: as §1
# [7] = molecular target: Gal(a1-3)Gal
# Procedure, shortened: as §1
# [8] = molecular target: Gal(a1-3)Gal(b1-3)GlcNAc
# Procedure, shortened: as §1
# [9] = molecular target: Gal(a1-3)Gal(b1-3)GlcNAc(b1-2)Man
# Procedure, shortened: as §1
# [10] = molecular target: Gal(a1-3)Gal(b1-3)GlcNAc(b1-2)Man(a1-3)[Gal(a1-3)Gal(b1-3)GlcNAc(b1-2)Man(a1-6)]Man(b1-4)GlcNAc(b1-4)GlcNAc
# Procedure, shortened: as §1
# [11] = molecular target: Gal(a1-3)Gal(b1-3)GlcNAc(b1-3)GalNAc
# Procedure, shortened: as §1
# [12] = molecular target: Gal(a1-3)Gal(b1-3)GlcNAc(b1-6)GalNAc
# Procedure, shortened: as §1
# [13] = molecular target: Gal(a1-3)Gal(b1-3)[Fuc(a1-4)]GlcNAc(b1-2)Man(a1-3)[Gal(a1-3)Gal(b1-3)[Fuc(a1-4)]GlcNAc(b1-2)Man(a1-6)]Man(b1-4)GlcNAc(b1-4)GlcNAc
# Procedure, shortened: as §1
# [14] = molecular target: Gal(a1-3)Gal(b1-4)Glc
# Procedure, shortened: as §1
# [15] = molecular target: Gal(a1-3)Gal(b1-4)GlcNAc
# Procedure, shortened: as §1
# [16] = molecular target: Gal(a1-3)Gal(b1-4)GlcNAc(b1-2)Man
# Procedure, shortened: as §1
# [17] = molecular target: Gal(a1-3)Gal(b1-4)GlcNAc(b1-2)Man(a1-3)[Gal(a1-3)Gal(b1-4)GlcNAc(b1-2)Man(a1-6)]Man(b1-4)GlcNAc(b1-4)GlcNAc
# Procedure, shortened: as §1
# [18] = molecular target: Gal(a1-3)Gal(b1-4)GlcNAc(b1-3)GalNAc
# Procedure, shortened: as §1
# [19] = molecular target: Gal(a1-3)Gal(b1-4)GlcNAc(b1-6)GalNAc
# Procedure, shortened: as §1
# [20] = molecular target: Gal(a1-3)Gal(b1-4)[Fuc(a1-3)]GlcNAc
# Procedure, shortened: as §1
# [21] = molecular target: Gal(a1-3)Gal(b1-4)[Fuc(a1-3)]GlcNAc(b1-2)Man(a1-3)[Gal(a1-3)Gal(b1-4)[Fuc(a1-3)]GlcNAc(b1-2)Man(a1-6)]Man(b1-4)GlcNAc(b1-4)GlcNAc
# Procedure, shortened: as §1
# [22] = molecular target: Gal(a1-3)GalNAc
# Procedure, shortened: as §1
# [23] = molecular target: Gal(a1-3)[Gal(a1-4)]Gal(b1-4)GlcNAc
# Procedure, shortened: as §1
# [24] = molecular target: Gal(a1-4)Gal(b1-3)GlcNAc(b1-2)Man(a1-3)[Gal(a1-4)Gal(b1-3)GlcNAc(b1-2)Man(a1-6)]Man(b1-4)GlcNAc(b1-4)GlcNAc
# Procedure, shortened: as §1
# [25] = molecular target: Gal(a1-4)Gal(b1-4)Glc
# Procedure, shortened: as §1
# [26] = molecular target: Gal(a1-4)Gal(b1-4)GlcNAc
# Procedure, shortened: as §1
# [27] = molecular target: Gal(a1-4)Gal(b1-4)GlcNAc(b1-2)Man(a1-3)[Gal(a1-4)Gal(b1-4)GlcNAc(b1-2)Man(a1-6)]Man(b1-4)GlcNAc(b1-4)GlcNAc
# Procedure, shortened: as §1
# [28] = molecular target: Gal(a1-4)Gal(b1-4)GlcNAc(b1-3)Gal(b1-4)Glc
# Procedure, shortened: as §1
# [29] = molecular target: Gal(a1-4)GlcNAc
# Procedure, shortened: as §1
# [30] = molecular target: Gal(a1-6)Glc
# Procedure, shortened: as §1
# [31] = molecular target: Gal(b1-2)Gal
# Procedure, shortened: as §1
# [32] = molecular target: Gal(b1-3)Gal
# Procedure, shortened: as §1
# [33] = molecular target: Gal(b1-3)Gal(b1-4)GlcNAc
# Procedure, shortened: as §1
# [34] = molecular target: Gal(b1-3)GalNAc
# Procedure, shortened: as §1
# [35] = molecular target: Gal(b1-3)GalNAc(a1-3)[Fuc(a1-2)]Gal(b1-4)Glc
# Procedure, shortened: as §1
# [36] = molecular target: Gal(b1-3)GalNAc(a1-3)[Fuc(a1-2)]Gal(b1-4)GlcNAc
# Procedure, shortened: as §1
# [37] = molecular target: Gal(b1-3)GalNAc(b1-3)Gal
# Procedure, shortened: as §1
# [38] = molecular target: Gal(b1-3)GalNAc(b1-3)Gal(a1-4)Gal(b1-4)Glc
# Procedure, shortened: as §1
# [39] = molecular target: Gal(b1-3)GalNAc(b1-4)Gal(b1-4)Glc
# Procedure, shortened: as §1
# [40] = molecular target: Gal(b1-3)GalNAc(b1-4)[Neu5Ac(a2-3)]Gal(b1-4)Glc
# Procedure, shortened: as §1
# [41] = molecular target: Gal(b1-3)GlcNAc
# Procedure, shortened: as §1
# [42] = molecular target: Gal(b1-3)GlcNAc(a1-3)Gal(b1-4)GlcNAc
# Procedure, shortened: as §1
# [43] = molecular target: Gal(b1-3)GlcNAc(a1-6)Gal(b1-4)GlcNAc
# Procedure, shortened: as §1
# [44] = molecular target: Gal(b1-3)GlcNAc(b1-2)Man
# Procedure, shortened: as §1
# [45] = molecular target: Gal(b1-3)GlcNAc(b1-2)Man(a1-3)[Gal(b1-3)GlcNAc(b1-2)Man(a1-6)]Man(b1-4)GlcNAc(b1-4)GlcNAc
# Procedure, shortened: as §1
binder,measurement,setting,value
OGAN (protein) MVQKESQATLEERESELSSNPAASAGASLEPPAAPAPGEDNPAGAGGAAVAGAAGGARRFLCGVVEGFYGRPWVMEQRKELFRRLQKWELNTYLYAPKDDYKHRMFWREMYSVEEAEQLMTLISAAREYEIEFIYAISPGLDITFSNPKEVSTLKRKLDQVSQFGCRSFALLFNDIDHNMCAADKEVFSSFAHAQVSITNEIYQYLGEPETFLFCPTEYCGTFCYPNVSQSPYLRTVGEKLLPGIEVLWTGPKVVSKEIPVESIEEVSKIIKRAPVIWDNIHANDYDQKRLFLGPYKGRSTELIPRLKGVLTNPNCEFEANYVAIHTLATWYKSNMNGVRKDVVMTDSEDSTVSIQIKLENEGSDEDIETDVLYSPQMALKLALTEWLQEFGVPHQY,glycan array binding signal (z-score),[1],-0.076
same,glycan array binding signal (z-score),[2],-0.044
same,glycan array binding signal (z-score),[3],-0.101
same,glycan array binding signal (z-score),[4],-0.09
same,glycan array binding signal (z-score),[5],-0.064
same,glycan array binding signal (z-score),[6],-0.073
same,glycan array binding signal (z-score),[7],-0.111
same,glycan array binding signal (z-score),[8],-0.071
same,glycan array binding signal (z-score),[9],-0.026
same,glycan array binding signal (z-score),[10],-0.014
same,glycan array binding signal (z-score),[11],-0.052
same,glycan array binding signal (z-score),[12],-0.077
same,glycan array binding signal (z-score),[13],-0.035
same,glycan array binding signal (z-score),[14],-0.059
same,glycan array binding signal (z-score),[15],-0.027
same,glycan array binding signal (z-score),[16],-0.037
same,glycan array binding signal (z-score),[17],-0.062
same,glycan array binding signal (z-score),[18],-0.02
same,glycan array binding signal (z-score),[19],-0.025
same,glycan array binding signal (z-score),[20],-0.078
same,glycan array binding signal (z-score),[21],-0.048
same,glycan array binding signal (z-score),[22],-0.065
same,glycan array binding signal (z-score),[23],0
same,glycan array binding signal (z-score),[24],-0.031
same,glycan array binding signal (z-score),[25],-0.044
same,glycan array binding signal (z-score),[26],-0.049
same,glycan array binding signal (z-score),[27],-0.024
same,glycan array binding signal (z-score),[28],-0.078
same,glycan array binding signal (z-score),[29],-0.073
same,glycan array binding signal (z-score),[30],-0.091
same,glycan array binding signal (z-score),[31],-0.07
same,glycan array binding signal (z-score),[32],-0.064
same,glycan array binding signal (z-score),[33],-0.046
same,glycan array binding signal (z-score),[34],-0.068
same,glycan array binding signal (z-score),[35],-0.07
same,glycan array binding signal (z-score),[36],-0.088
same,glycan array binding signal (z-score),[37],-0.062
same,glycan array binding signal (z-score),[38],-0.054
same,glycan array binding signal (z-score),[39],-0.029
same,glycan array binding signal (z-score),[40],-0.088
same,glycan array binding signal (z-score),[41],-0.058
same,glycan array binding signal (z-score),[42],-0.067
same,glycan array binding signal (z-score),[43],-0.01
same,glycan array binding signal (z-score),[44],-0.027
same,glycan array binding signal (z-score),[45],-0.025

# From the supplement of paper PMC8728848
